{"source": "PubChem BioAssay AID1347165", "about": "(National Center for Advancing Translational Sciences (NCATS), 2019)", "note": "Hit rate of the full screen: of about 220,000 compounds, about 5,700 (2.6%) were called active. Inconclusive results, whose numbers are uncertain, are shown with a selection of clear calls. Calls follow the shape of the dose curve; as a rule, active = well fitted inhibition curve with a large enough effect; inconclusive = small, poorly fitted or top-dose-only effect; inactive = no such curve, though single readings can be large or run the other way. A potency beside an inconclusive call is a rough fit, not a confirmed value. Potency is read from the fitted curve at half-maximal effect; tags tell the direction and shape of the fitted curve.", "data": [{"biological_target": "Lysine-specific demethylase 5B (Homo sapiens) (UniProt Q9UGL1)", "sequence (Q9UGL1 whole entry, looked up)": "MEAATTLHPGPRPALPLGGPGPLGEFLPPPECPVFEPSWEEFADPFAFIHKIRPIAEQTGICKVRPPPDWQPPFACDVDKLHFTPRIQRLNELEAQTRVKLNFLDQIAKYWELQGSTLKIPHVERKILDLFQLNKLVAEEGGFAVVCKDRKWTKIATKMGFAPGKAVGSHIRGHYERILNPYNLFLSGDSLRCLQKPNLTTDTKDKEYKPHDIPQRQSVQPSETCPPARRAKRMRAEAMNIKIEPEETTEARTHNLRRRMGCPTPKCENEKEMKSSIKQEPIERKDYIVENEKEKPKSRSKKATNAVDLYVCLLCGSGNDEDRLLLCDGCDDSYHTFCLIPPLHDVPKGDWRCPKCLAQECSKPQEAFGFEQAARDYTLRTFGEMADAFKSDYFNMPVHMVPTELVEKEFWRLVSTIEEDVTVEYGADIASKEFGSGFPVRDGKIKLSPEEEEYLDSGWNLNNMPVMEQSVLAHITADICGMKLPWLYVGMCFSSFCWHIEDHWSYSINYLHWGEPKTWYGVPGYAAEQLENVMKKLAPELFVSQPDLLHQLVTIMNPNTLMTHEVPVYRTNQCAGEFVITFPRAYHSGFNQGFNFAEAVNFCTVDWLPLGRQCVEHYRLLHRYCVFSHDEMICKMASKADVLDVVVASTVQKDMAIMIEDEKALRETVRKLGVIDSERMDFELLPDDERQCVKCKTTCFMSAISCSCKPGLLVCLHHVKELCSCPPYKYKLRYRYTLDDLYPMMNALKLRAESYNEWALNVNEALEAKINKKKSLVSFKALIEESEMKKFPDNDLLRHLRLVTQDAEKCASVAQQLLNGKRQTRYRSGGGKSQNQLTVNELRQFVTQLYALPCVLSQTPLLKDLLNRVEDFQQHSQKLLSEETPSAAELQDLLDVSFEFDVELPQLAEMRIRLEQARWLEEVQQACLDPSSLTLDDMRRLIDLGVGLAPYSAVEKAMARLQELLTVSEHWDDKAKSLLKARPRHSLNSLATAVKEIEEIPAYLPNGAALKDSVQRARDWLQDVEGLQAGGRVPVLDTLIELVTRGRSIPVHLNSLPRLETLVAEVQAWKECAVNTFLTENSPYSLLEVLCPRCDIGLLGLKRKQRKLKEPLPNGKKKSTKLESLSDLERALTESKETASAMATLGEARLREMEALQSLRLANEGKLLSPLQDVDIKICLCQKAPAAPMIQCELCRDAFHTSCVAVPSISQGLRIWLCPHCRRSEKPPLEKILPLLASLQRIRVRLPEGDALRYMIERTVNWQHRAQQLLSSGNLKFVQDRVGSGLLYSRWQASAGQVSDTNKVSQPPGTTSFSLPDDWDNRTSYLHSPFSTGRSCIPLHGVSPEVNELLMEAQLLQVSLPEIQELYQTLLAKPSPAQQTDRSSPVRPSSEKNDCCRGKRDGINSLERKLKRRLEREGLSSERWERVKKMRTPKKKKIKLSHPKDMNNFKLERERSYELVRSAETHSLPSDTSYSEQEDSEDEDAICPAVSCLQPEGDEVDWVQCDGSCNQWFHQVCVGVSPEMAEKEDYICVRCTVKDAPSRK", "assay": "Primary screen for KDM5B Histone Demethylases FDH-coupled qHTS; also: nearly all actives have a fitted effect of over 70% in size; as to activity change, negative = inhibition: 0% is about no effect", "conditions": "FDH-coupled NADH fluorescence (FDH is formaldehyde dehydrogenase); activity change, negative = inhibition: at 57.7 µM (top of the series) unless noted", "procedure,_shortened": "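KDM5BΔAP (200 nM final) in 50 mM HEPES pH 7.5, 0.01% Tween-20 was preincubated 10 min at RT with compound over a concentration range. Substrate mix (H3K4me3 12.5 µM, α-KG 25 µM, Fe²⁺, ascorbate, NAD⁺, FDH) was added, and NADH fluorescence change over 30 min gave dose-response curves.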", "values": [{"smiles": "Cc1nc(CN2C[C@H](C(=O)N3CCN(CCO)CC3)C[C@@H]2c2ccc(F)cc2)cs1", "Potency": "inconclusive: 35.5 µM [inhibitor, single point]"}, {"smiles": "COc1ccc(-c2cc(-c3cccnc3)c3cncn3c2)cn1", "Potency": "inconclusive: 8.91 µM [inhibitor, partial curve, poor fit]"}, {"smiles": "Cc1ccc(-n2ncc(C(=O)NCCCN3CCCCC3)c2C2CCN(C(=O)OC(C)(C)C)CC2)cc1", "Potency": "inconclusive: 1.26 µM [inhibitor, partial curve, poor fit]"}, {"smiles": "COc1c(C)cccc1C(=O)Nc1ccc(O)c(-c2nc3ccccc3o2)c1", "activity change, negative = inhibition": "inactive: 16.3%"}, {"smiles": "NC(=O)CN1CCC(C(=O)NCc2cc(-c3ccc(Cl)cc3)on2)CC1", "Potency": "inconclusive: 11.2 µM [inhibitor, partial curve, poor fit]"}, {"smiles": "Nc1nccnc1C(=O)NCCc1ccc(C(F)(F)F)cc1", "Potency": "inconclusive: 28.2 µM [inhibitor, partial curve, poor fit]"}, {"smiles": "C[C@@H](NC(=O)C1CCCCC1)c1onc(-c2ccc(Cl)cc2)c1C(=O)O", "activity change, negative = inhibition": "inactive: -19.9% [at 86.2 µM]"}, {"smiles": "CCc1cccc(OCC(=O)c2ccc3c(c2)N(CC(=O)NCCCOC)C(=O)CO3)c1", "Potency": "inconclusive: 15.8 µM [inhibitor, partial curve, poor fit]"}, {"smiles": "CN1CC[C@H](c2nc3ccccc3[nH]2)C1", "Potency": "inconclusive: 31.6 µM [inhibitor, partial curve, poor fit]"}, {"smiles": "Cc1ccc(NC(=O)c2cc3c(N4CCSCC4)nc(C)cn3n2)cc1", "Potency": "active: 35.5 µM"}, {"smiles": "COc1ccc(C(=O)Nc2ccnn2C2CCN(Cc3ccncc3)CC2)cc1", "Potency": "inconclusive: 20 µM [inhibitor, single point]"}, {"smiles": "N#Cc1nc(-c2ccc(S(=O)(=O)N3CCCCCC3)cc2)oc1NCc1ccc2c(c1)OCO2", "activity change, negative = inhibition": "inactive: -26.4%"}, {"smiles": "Cn1c(=O)c2c(nc(NCC(O)CO)n2Cc2c(F)cccc2Cl)n(C)c1=O", "note": "(centres undefined)", "activity change, negative = inhibition": "inactive: -5.71%"}, {"smiles": "O=C(/C=C/c1ccco1)N(Cc1cccs1)Cc1cccs1", "Potency": "inconclusive: 25.1 µM [inhibitor, partial curve, poor fit]"}, {"smiles": "CCCOc1cc(C)c(Cl)cc1S(=O)(=O)N1CCCC1", "activity change, negative = inhibition": "inactive: -7.62%"}, {"smiles": "Cc1cccc(CNC(=O)c2cnc3sc(N4CCCCCC4)nn3c2=O)c1", "Potency": "inconclusive: 3.55 µM [inhibitor, partial curve, poor fit]"}, {"smiles": "CCn1nc(C(=O)N2CC(C(=O)N3CCOCC3)Oc3ccccc32)c2ccccc2c1=O", "note": "(centres undefined)", "activity change, negative = inhibition": "inactive: 7.68%"}, {"smiles": "N#Cc1ccc(CN2CCC3(COC(=O)N3Cc3ccccc3)C2)cc1", "note": "(centres undefined)", "Potency": "inconclusive: 28.2 µM [inhibitor, single point]"}, {"smiles": "Cc1nnc(-c2cc(-c3cccc(CO)c3)ccn2)n1CCN1CCOCC1", "activity change, negative = inhibition": "inactive: 7.17% [at 86.2 µM]"}, {"smiles": "Cc1ccc(S(=O)(=O)[N-]c2nc3ccccc3nc2-n2cc[n+](Cc3ccccc3)c2)cc1", "Potency": "inconclusive: 25.1 µM [inhibitor, partial curve, poor fit]"}, {"smiles": "CCOC(=O)C1=C(C)N=C2SC=C(CC(=O)NCC3CCCO3)N2C1c1ccc(Cl)cc1", "note": "(centres undefined)", "Potency": "inconclusive: 35.5 µM [inhibitor, partial curve, poor fit]"}, {"smiles": "CC(C)OC(=O)COc1ccc(/C=C(/C#N)c2nc3ccccc3[nH]2)cc1", "Potency": "inconclusive: 39.8 µM [inhibitor, single point]"}, {"smiles": "COCCCNC(=O)c1c(C)oc2c1CN(Cc1ccc(F)cc1)CC2", "Potency": "inconclusive: 17.8 µM [inhibitor, single point]"}, {"smiles": "C=CCNC(=O)N[C@H]1C[C@H]2C(=O)Nc3ccccc3C(=O)N2C1", "activity change, negative = inhibition": "inactive: 8.49% [at 86.2 µM]"}, {"smiles": "CC(C)(C)c1ccc(-c2nc3cc(N)ccc3o2)cc1", "Potency": "inconclusive: 22.4 µM [inhibitor, partial curve, poor fit]"}, {"smiles": "CC(=O)N1C[C@@H]2CCCN3CCC[C@@H]([C@H]23)[C@H]1CCCC(=O)N(C)C1CCN(C)CC1", "Potency": "inconclusive: 22.4 µM [inhibitor, partial curve, poor fit]"}, {"smiles": "COc1ccc(C2Cn3cnc(-c4nc(-c5ccsc5)no4)c3CO2)cc1", "note": "(centres undefined)", "Potency": "inconclusive: 28.2 µM [inhibitor, single point]"}, {"smiles": "N#C/C(=C\\c1cccc(OC(=O)c2ccccc2Cl)c1)C(=O)Nc1cccc(C(F)(F)F)c1", "Potency": "inconclusive: 39.8 µM [inhibitor, single point]"}, {"smiles": "Cc1ccc(NC(=O)CSc2ccc(-c3sc(-c4ccccc4)nc3C)nn2)cc1F", "Potency": "inconclusive: 25.1 µM [inhibitor, partial curve, poor fit]"}, {"smiles": "O=C1CN(C(=O)Nc2ccccc2C(F)(F)F)C(c2ccccc2)c2c(sc3c2CCCC3)N1", "note": "(centres undefined)", "activity change, negative = inhibition": "inconclusive: -34.3% [inhibitor]"}, {"smiles": "CCCNc1nc(-c2ccc(S(=O)(=O)N3CCOCC3)cc2)cs1", "Potency": "inconclusive: 28.2 µM [inhibitor, partial curve, poor fit]"}, {"smiles": "CC1=C[C@@H](CN2CCC(C(N)=O)CC2)[C@H](C(C)C)C[C@H]1Cc1nnc(C(C)(C)C)o1", "Potency": "inconclusive: 35.5 µM [inhibitor, partial curve, poor fit]"}, {"smiles": "COc1ccc2cc(C(=O)Nc3ccccc3)c(C)nc2c1", "activity change, negative = inhibition": "inactive: -25.7%"}, {"smiles": "COc1cc(C2CC(=O)N3CN(c4ccc(F)cc4)CSC3=C2C#N)cc(Br)c1O", "note": "(centres undefined)", "Potency": "inconclusive: 8.91 µM [inhibitor, full curve, poor fit]"}, {"smiles": "CCn1nccc1C(=O)N1CCCC(c2nc(-c3cccnc3)no2)CCNC(=O)CC1", "note": "(centres undefined)", "Potency": "inconclusive: 39.8 µM [inhibitor, single point]"}, {"smiles": "N#Cc1ccc(CN2CCC3(COc4ccccc4C(=O)N3)C2)cc1", "note": "(centres undefined)", "Potency": "active: 39.8 µM"}, {"smiles": "O[C@@H]1CN(Cc2ccc(-n3cccn3)cc2)CC[C@H]1c1ccc(F)cc1", "Potency": "inconclusive: 25.1 µM [inhibitor, single point]"}, {"smiles": "c1ccc(OCc2noc(CN3CCN(C(c4ccccc4)c4ccccc4)CC3)n2)cc1", "Potency": "inconclusive: 12.6 µM [inhibitor, partial curve, poor fit]"}, {"smiles": "CN1[C@@H](CCC(=O)NCc2cccs2)CNC(=O)[C@@H]2[C@H]1CCN2C1CCOCC1", "Potency": "inconclusive: 28.2 µM [inhibitor, partial curve]"}, {"smiles": "CCOc1ccc(C2C(C#N)=C(N)Oc3n[nH]c(-c4ccc(F)cc4)c32)cc1OCC", "note": "(centres undefined)", "Potency": "inconclusive: 17.8 µM [inhibitor, partial curve, poor fit]"}, {"smiles": "COC(=O)CC1Oc2ccc(C)cc2-n2cc(-c3ccc(C)cc3)nc21", "note": "(centres undefined)", "Potency": "inconclusive: 25.1 µM [inhibitor, partial curve, poor fit]"}, {"smiles": "CC(=O)N1Cc2ccccc2NC(=O)C12CCNCC2", "Potency": "inconclusive: 89.1 µM [inhibitor, partial curve]"}, {"smiles": "CCSc1nn(CC(=O)Nc2cccc(Cl)c2)c(N)c1S(=O)(=O)c1ccc(OC)cc1", "Potency": "inconclusive: 14.1 µM [inhibitor, partial curve, poor fit]"}, {"smiles": "CCOCCCNC(=O)N1CCC2(CC1)CC(N1CCOCC1)CCO2", "note": "(centres undefined)", "activity change, negative = inhibition": "inactive: -0.313%"}, {"smiles": "O=C(Cc1cccs1)N1CC(c2noc(C3CCCN3CC3CC3)n2)C1", "note": "(centres undefined)", "Potency": "inconclusive: 22.4 µM [inhibitor, partial curve]"}, {"smiles": "O=C(CCc1ncc(-c2ccc(Cl)cc2)o1)Nc1ccccc1O", "activity change, negative = inhibition": "inactive: -18.6%"}, {"smiles": "Cc1ccc(C)c(C(=O)N2CCOC(CCCc3ccccc3)C2)c1", "note": "(centres undefined)", "activity change, negative = inhibition": "inactive: -9.44%"}, {"smiles": "Cc1ccc(OCc2nn3c(=O)c4ccccc4nc3s2)cc1", "activity change, negative = inhibition": "inactive: 6.59%"}, {"smiles": "COc1cc(C(=O)/C=C/c2ccccc2F)ccc1S(C)(=O)=O", "Potency": "inconclusive: 17.8 µM [inhibitor, partial curve, poor fit]"}, {"smiles": "CCC(C)c1ccc(NC(=O)c2ccc(SC)cc2OC)cc1", "note": "(centres undefined)", "activity change, negative = inhibition": "inactive: 1.35%"}, {"smiles": "COc1ccc(OC)c(-c2noc(N3CCN(c4cccc(C)c4C)CC3)n2)c1", "Potency": "inconclusive: 35.5 µM [inhibitor, partial curve, poor fit]"}, {"smiles": "O=C(/C=C/c1ccco1)Nc1cccnc1Cl", "Potency": "inconclusive: 39.8 µM [inhibitor, single point]"}, {"smiles": "CNC(=O)c1ccc2c(c1)OCCN(c1ccccc1)C2", "activity change, negative = inhibition": "inactive: -13.3% [at 115 µM]"}, {"smiles": "CC(=O)N(C)c1ccc(N=Cc2cc3c(cc2[N+](=O)[O-])OCO3)cc1", "Potency": "inconclusive: 28.2 µM [inhibitor, single point]"}, {"smiles": "Cc1cccc(CS(=O)(=O)Cc2ccc(C#N)cc2)c1", "activity change, negative = inhibition": "inactive: 12.8%"}, {"smiles": "O=C(OCC(=O)N1CCCC1)c1cc2ccccc2[nH]1", "Potency": "inconclusive: 31.6 µM [inhibitor, partial curve, poor fit]"}, {"smiles": "Cc1ccccc1CC(=O)N1CCCn2cc(-c3cccc(C#N)c3)nc21", "Potency": "active: 22.4 µM"}, {"smiles": "CCN(CCCNC(=O)Cn1ncc2c([nH]c3ccc(C)cc32)c1=O)Cc1ccccc1", "Potency": "inconclusive: 15.8 µM [inhibitor, partial curve, poor fit]"}, {"smiles": "CCOc1ccc(O)c(C=NC2CCCC2)c1", "activity change, negative = inhibition": "inactive: -10.2%"}, {"smiles": "CCC1CCCCN1CCCNC(=O)c1ccc2c(=O)n(CCOC)c(=O)[nH]c2c1", "note": "(centres undefined)", "Potency": "inconclusive: 28.2 µM [inhibitor, partial curve, poor fit]"}, {"smiles": "CC(C)n1c(=N)c(C(=O)NC2CCCCC2)cc2c(=O)n3ccccc3nc21", "Potency": "inconclusive: 2.82 µM [inhibitor, partial curve, poor fit]"}, {"smiles": "COc1cccc(/C=C(\\C#N)C(=O)Nc2ccccc2C(F)(F)F)c1OCc1ccc(F)cc1", "Potency": "inconclusive: 28.2 µM [inhibitor, partial curve, poor fit]"}, {"smiles": "O=C1NCCCCCCN(Cc2ccncc2)[C@@H]2CN(Cc3ccncc3)CC[C@H]12", "Potency": "inconclusive: 17.8 µM [inhibitor, partial curve, poor fit]"}, {"smiles": "CCc1ccc(CNC(=O)c2ccc3c(c2)N(CC)C2CCCCN2C3=O)cc1", "note": "(centres undefined)", "Potency": "inconclusive: 22.4 µM [inhibitor, partial curve, poor fit]"}]}]}
